# Laboratory results published in PMC6919601, “Identification of Plasmodium dipeptidyl aminopeptidase allosteric inhibitors by high throughput screening” (PLoS ONE, 2019).
# In all, about 110,000 compounds went through this assay and about 230 (0.21%) showed an effect of 50% or more. The list shows a part of the results.
# Biological target: DPAP1 (Plasmodium falciparum, UniProt Q8IIJ9)
# Test: primary screen, percent inhibition; read by cleavage of a fluorogenic dipeptide substrate; higher = more effect of the substance
# Parameters: species or system P. falciparum D10 trophozoite lysates; single well
# 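Also: 30 min substrate incubation versus DMSO and 10 µM JCP410 controls.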
# DPAP1, sequence (Q8IIJ9 whole entry, looked up): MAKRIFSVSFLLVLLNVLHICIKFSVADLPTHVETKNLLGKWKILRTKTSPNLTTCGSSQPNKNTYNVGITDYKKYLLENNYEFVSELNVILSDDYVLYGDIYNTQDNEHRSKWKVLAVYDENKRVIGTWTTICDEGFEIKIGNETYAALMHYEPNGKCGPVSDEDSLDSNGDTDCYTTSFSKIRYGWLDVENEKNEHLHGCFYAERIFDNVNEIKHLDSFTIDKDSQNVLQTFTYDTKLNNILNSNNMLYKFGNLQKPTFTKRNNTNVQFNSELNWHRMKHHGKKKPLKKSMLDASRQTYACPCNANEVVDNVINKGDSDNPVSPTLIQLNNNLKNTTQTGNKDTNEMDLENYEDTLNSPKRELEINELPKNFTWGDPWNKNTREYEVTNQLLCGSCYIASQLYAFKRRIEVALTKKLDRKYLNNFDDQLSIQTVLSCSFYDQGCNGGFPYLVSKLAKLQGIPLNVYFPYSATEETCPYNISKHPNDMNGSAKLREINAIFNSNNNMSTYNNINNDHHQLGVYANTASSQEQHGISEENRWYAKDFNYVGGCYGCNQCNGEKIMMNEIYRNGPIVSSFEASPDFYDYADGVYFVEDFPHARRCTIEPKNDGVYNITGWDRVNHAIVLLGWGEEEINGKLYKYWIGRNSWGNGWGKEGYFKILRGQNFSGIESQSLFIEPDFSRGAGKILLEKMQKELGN
row,SMILES,% Inhibition @ 10 uM
1,N#CCNC(=O)[C@H](Cc1c(F)cccc1F)NC(=O)c1cc(-c2ccccc2Cl)no1,-5.2%
2,CC(C(=O)NCc1ccccc1Cl)n1ccc2cc(S(=O)(=O)N3CCCC3)ccc21 (stereo not drawn),-4.77%
3,COCCn1c(CCC(=O)NCc2ccccc2Cl)nc2cccnc21,-0.72%
4,CCn1nc(-c2ccc(C(F)(F)F)cc2)nc2c(=O)n(C)c(=O)nc1-2,-6.74%
5,CCN(CC)CCOC(=O)/C=C/c1ccccc1,4.54%
6,CC(=O)N1Cc2ccccc2-c2ccccc2C1,-3.27%
7,CN1CCN(Cc2cc(Br)cs2)CC1,4.57%
8,CCC(C)NCc1c(C(=O)O)n(Cc2ccc(OC)cc2)c2ccccc12 (stereo not drawn),-4.07%
9,CC1CCN(C(=O)/C=C/c2cccc([N+](=O)[O-])c2)CC1,-8.37%
10,CCc1nnc(NC(=O)c2cc(=O)c3cc(Cl)ccc3o2)s1,1.9%
11,O=P(CCNCc1cccnc1)(c1ccccc1)c1ccccc1,-3.41%
12,CCOC(=O)N1CCN(S(=O)(=O)c2c[nH]c(C(=O)OC)c2)CC1,-1.11%
13,CCOc1ccc2nc(NC(=O)c3cccn(OCc4ccccc4)c3=O)sc2c1,-3.44%
14,COc1ccccc1CNC(=O)c1cc(S(=O)(=O)N2CCCCC2)c[nH]1,1.45%
15,O=c1c(-c2ccccc2)coc2c(CN3CCCCCC3)c(O)ccc12,1.26%
16,Cc1ccccc1-n1c(SCc2ccccc2)nnc1-c1cccnc1,0.238%
17,COCCn1c(=N)c(C(=O)NCC2CCCO2)cc2c(=O)n3cc(C)ccc3nc21 (stereo not drawn),94.3%
18,CCOC(=O)c1c(NC(=O)c2nn(C)c(=O)c3ccccc23)sc2c1CCCC2,-4.42%
19,CCOc1c(Cl)cc(C(=O)NC(C)(C)C)cc1Cl,-0.123%
20,CSc1nc(O)c(C(c2ccccc2)c2ccccc2)c(O)n1,-2.34%
21,CC(Nc1cnn(C23CC4CC(CC(C4)C2)C3)c(=O)c1Cl)c1ccccc1 (stereo not drawn),0.166%
22,COc1ccc(-c2nnc(-c3ccccc3)o2)cc1,1.26%

row,SMILES,% Inhibition @ 10 uM
1,COc1ccccc1-n1nc(C)c(-c2ccccc2)c1N,-2.19%
2,Cc1cc(C)nc(N2CCN(c3ncnc4sc5c(c34)CCCC5)CC2)n1,-10.5%
3,COc1cccc(CN2CCCC(O)C2)c1 (stereo not drawn),8.45%
4,CCCCCc1ccc(-c2ccc(-c3noc(-c4ccc(CCCC)cc4)n3)cc2)cc1,-0.693%
5,CNCc1cccc(OC)c1OCc1ccc(F)cc1,-3.48%
6,C(=C\c1ccccc1)/CN1CCN(Cc2cccnc2)CC1,-2.56%
7,Cc1cc(=O)n2nc(N3CCC(C(=O)NCCCSC4CCCCC4)CC3)sc2n1,1.38%
8,Cc1ccccc1CNCc1c(C(=O)O)n(Cc2ccccc2C)c2ccccc12,0.201%
9,CC1CCc2c(sc(NC(=O)CCC(=O)O)c2C(=O)Nc2cccc3ccccc23)C1 (stereo not drawn),5.53%
10,CC(CNC(=O)Cn1ncn2c(cc3cc(F)ccc32)c1=O)c1ccccc1 (stereo not drawn),-3.47%
11,CC(=O)c1c(O)c2cccc3c2n(c1=O)C(C)C3 (stereo not drawn),2.5%
12,CCOC(=O)c1cnc2c(C#N)cnn2c1-c1ccccc1,4.74%
13,CN1CCN(Cc2ccsc2)CC1,-7.5%
14,CCOC(=O)c1cnc2cc(-c3ccccc3)nn2c1C,-3.63%
15,COCCN1C(=O)C(O)=C(C(=O)c2ccc(C)cc2)C1c1cccc(Oc2ccccc2)c1 (stereo not drawn),0.163%
16,O=S(=O)(NC1CCCCC1)c1ccc(-n2cnnn2)cc1,-2.84%
17,O=C1C2C3C=CC(C3)C2C(=O)N1CCC(=O)N(C1CCCCC1)C1CCCCC1 (stereo not drawn),4.01%
18,CSCCOC(=O)C1=C(C)NC(=O)CC1c1ccccc1C(F)(F)F (stereo not drawn),-0.396%
19,O=C(c1nc(-c2ccccc2)n(-c2ccc(Cl)cc2)n1)N1CCOCC1,1.89%
20,O=C(O)c1ccccc1C(=O)Nc1ccc(S(=O)(=O)NC2CCCCC2)cc1,1.29%
21,FC(F)(F)c1ccc(NCc2ccccc2)nc1,-5.48%
22,CCc1ccc(-c2cn3ccccc3n2)cc1,1.27%

row,SMILES,% Inhibition @ 10 uM
1,Cc1cc2n(c(=O)c1C#N)CC(c1ccccc1)=C2,2.38%
2,Cc1cc(C)n(-c2ccc(Cl)cc2)c(=O)c1C(=O)O,1.27%
3,Cc1ccc(CNC(=O)c2ccc(CS(=O)c3ccccc3Cl)o2)cc1 (stereo not drawn),4.65%
4,CN1CCC(N(C)C(=O)/C(=C/c2cccs2)NC(=O)c2ccccc2)CC1,0.751%
5,COc1ccc(-c2cc(C(=O)Nc3cccc4ccccc34)c3ccccc3n2)cc1,3.05%
6,O=C(NC1CCN(Cc2ccccc2)CC1)C1CCN(S(=O)(=O)c2cccs2)CC1,-2.65%
7,O=C(NCc1ccccc1)c1ccc(COCC(F)(F)F)o1,-3.36%
8,CCOC(=O)C1=CN(C(C)C)C=C(C(=O)OCC)C1c1ccc(OCc2ccccc2)cc1,3.45%
9,CC(C)NC(=O)c1ccc2snnc2c1,-1.74%
10,COC(=O)C1CCCN1Cc1ccc(OC)c(C)c1C (stereo not drawn),1.57%
11,Cc1cccn2cc(CCNC(=O)c3cccc(Cl)c3)nc12,-3.51%
12,O=C(CSc1c2c(nc3ccc(Cl)cc13)CCCC2)N1CCC2(CC1)OCCO2,-6.89%
13,C#CC(C)(CC)NC(=O)c1cc2nc(C3CC3)cc(C(F)(F)F)n2n1 (stereo not drawn),2.57%
14,Cc1ccc(C(=O)Nc2ccc(Cl)cc2)c(C)n1,0.826%
15,CCOC(=O)C1=C(C)NC(=O)C1(NC(=O)c1cccnc1)C(F)(F)F (stereo not drawn),-1.75%
16,CC(=O)Nc1c(C(=O)N2CCCCC2)cnn1-c1ccccc1Cl,-0.891%
17,CCn1cc(C(=O)Nc2ccccc2C(C)C)cn1,6.1%
18,O=C(Nc1ccc2c(c1)S(=O)(=O)c1cc(NC(=O)c3cccs3)ccc1-2)c1cccs1,-3.26%
19,N#Cc1cc2c(nc1SCC(=O)Nc1ccc(S(=O)(=O)Nc3nccs3)cc1)CCCC2,-0.968%
20,CCC(=O)Nc1ncc(-c2ccccc2)s1,-3.72%
21,COc1ccccc1CN1CCN(c2ccccn2)CC1,-0.127%
22,Cc1c(C)n(C)c2ccc(C(=O)NCCc3cccs3)cc12,1.95%
